Experimental data taken from the supplement of paper PMC12217912.
The other results are listed elsewhere or left out. Sequences were assembled here from the parent chain. Values near 0.05 are background.

B1: TEV protease; numbered along this chain (parent)
chain: MGESLFKGPRDYNPISSSICHLTNESDGHTTSLYGIGFGPFIITNKHLFRRNNGTLVVQSLHGVFKVKDTTTLQQHLVDGRDMIIIRMPKDFPPFPQKLKFREPQREERICLVTTNFQTKSMSSMVSDTSCTFPSGDGIFWKHWIQTKDGQCGSPLVSTRDGFIVGIHSASNFTNTNNYFTSVPKNFMELLTNQEAQQWVSGWRLNADSVLWGGHKVFMVKPEEPFQPVKEATQL

Variants of: B1
Experiment: raw area under fraction-flipped curve 0-4 h after induction (AUC4h, not background-subtracted), DNA-recorder readout of cleavage of the substrate (dimensionless); higher = more cleavage of the substrate by the protease variant
Details: temperature: 34 °C; time window: 0-4 h after rhamnose induction
Protocol: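 In vivo DNA recorder in E. coli TOP10(DE3) ΔrhaA at 34 °C. Each TEVp single-site mutant (parent TEVp 0) is paired with a single-site variant of the 7-mer TEVs (canonical ENLYFQ|S). The substrate sits between flexible linkers in a Bxb1-sfGFP-TEVs-SsrA fusion, so cleavage stabilises Bxb1 and speeds flipping of a recombination array, read by NGS. The value is the raw area under the fraction-flipped curve over 0-4 h after rhamnose induction (AUC4h), with ≥20 reads per time point. It is not background-subtracted; inactive controls average about 0.047.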
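Note: Bxb1 expression induced with 0.2% (w/v) L-rhamnose at OD600 near 0.5, cultures sampled hourly, flipped fraction per protease–substrate barcode pair counted by paired-end Illumina sequencing.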

Row | Variant | area with substrate ENAYFQS | area with substrate ENDYFQS | area with substrate ENEYFQS | area with substrate ENFYFQS | area with substrate ENGYFQS | area with substrate ENHYFQS | area with substrate ENIYFQS | area with substrate ENMYFQS | area with substrate ENNYFQS | area with substrate ENPYFQS | area with substrate ENQYFQS | area with substrate ENSYFQS | area with substrate ENTYFQS | area with substrate ENVYFQS | area with substrate ENWYFQS | area with substrate ENCYFQS | area with substrate ENKYFQS | area with substrate ENRYFQS | area with substrate ENYYFQS
1 | MGESLFKGPRDYNPISSSICHLTNESDGHTTSLYGIGFGPFIITNKHLFRRNNGTLVVQSLHGVFKVKDTTTLQQHLVDGRDMIIIRMPKDFPPFPQKLKFREPQREERICLVTTNFQTKSMSSMVSDTSCTFPSGDGIFWKHWIQTKDGQCGSPLVSTRDGFIVGIHSASNFTNTNNYFTSVPKNFMELLTNQEAQQWVDGWRLNADSVLWGGHKVFMVKPEEPFQPVKEATQL [S201D] | 0.0696 | 0.0628 | 0.0595 | 0.0647 | 0.054 | 0.0559 | 0.0432 | 0.0486 | 0.0475 | 0.0465 | 0.0628 | 0.0682 | 0.0845 | 0.0725 | 0.0543 |  |  |  | 
2 | MGESLFKGPRDYNPISSSICHLTNESDGHTTSLYGIGFGPFIITNKHLFRRNNGTLVVQSLHGVFKVKDTTTLQQHLVDGRDMIIIRMPKDFPPFPQKLKFREPQREERICLVTTNFQTKSMSSMVSDTSCTFPSGDGIFWKHWIQTKDGQCGSPLVSTRDGFIVGIHSASNFTNTNNYFTSVPKNFMELLTNQEAQQWVSFWRLNADSVLWGGHKVFMVKPEEPFQPVKEATQL [G202F] | 0.0601 | 0.0575 | 0.0534 | 0.0651 | 0.0615 | 0.0712 | 0.0565 | 0.0573 | 0.0467 |  | 0.055 | 0.0888 | 0.0514 | 0.0526 |  | 0.0636 | 0.0633 | 0.0593 | 0.103
3 | MGESLFKGPRDYNPISSSICHLTNESDGHTTSLYGIGFGPFIITNKHLFRRNNGTLVVQSLHGVFKVKDTTTLQQHLVDGRDMIIIRMPKDFPPFPQKLKFREPQREERICLVTTNFQTKSMSSMVSDTSCTFPSGDGIFWKHWIQTKDGQCGSPLVSTRDGFIVGIHSASNFTNTNNYFTSVPKNFMELLTNQEAQQWVSKWRLNADSVLWGGHKVFMVKPEEPFQPVKEATQL [G202K] | 0.068 | 0.0751 | 0.0646 | 0.0391 |  |  | 0.0684 |  | 0.0704 |  |  |  |  |  | 0.0699 |  |  |  | 
4 | MGESLFKGPRDYNPISSSICHLTNESDGHTTSLYGIGFGPFIITNKHLFRRNNGTLVVQSLHGVFKVKDTTTLQQHLVDGRDMIIIRMPKDFPPFPQKLKFREPQREERICLVTTNFQTKSMSSMVSDTSCTFPSGDGIFWKHWIQTKDGQCGSPLVSTRDGFIVGIHSASNFTNTNNYFTSVPKNPMELLTNQEAQQWVSGWRLNADSVLWGGHKVFMVKPEEPFQPVKEATQL [F187P] | 0.0424 | 0.0368 | 0.0455 |  |  | 0.0436 |  | 0.0634 |  | 0.0507 | 0.0491 | 0.0359 | 0.0501 |  |  |  | 0.071 | 0.0503 | 
5 | MGESLFKGPRDYNPISSSICHLTNESDGHTTSLYGIGFGPFIITNKHLFRRNNGTLVVQSLHGVFKVKDTTTLQQHLVDGRDMIIIRMPKDFPPFPQKLKFREPQREERICLVTTNFQTKSMSSMVSDTSCTFPSGDGIFWKHWIQTKDGQCGSPLVSTRDGFIVGIHSASNFTNTNNYFTSVPKNFMELLTNQEAQQWVSGWILNADSVLWGGHKVFMVKPEEPFQPVKEATQL [R204I] | 0.0602 | 0.0559 | 0.0675 | 0.059 | 0.0583 | 0.0594 | 0.099 | 0.0596 | 0.0551 | 0.0546 | 0.0527 | 0.0538 | 0.0663 | 0.0797 | 0.0555 | 0.0672 | 0.064 | 0.0827 | 0.051
6 | MGESLFKGPRDYNPISSSICHLTNESDGHTTSLYGIGFGPFIITNKHLFRRNNGTLVVQSLHGVFKVKDTTTLQQHLVDGRDMIIIRMPKDFPPFPQKLKFREPQREERICLVTTNFQTKSMSSMVSDTSCTFPSGDGIFWKHWIQTKDGQCGSPLVSTRDGFIVGIHSASNFTNTNNYFTSVPKNFMELCTNQEAQQWVSGWRLNADSVLWGGHKVFMVKPEEPFQPVKEATQL [L191C] | 0.0659 | 0.0698 | 0.0648 | 0.0598 | 0.0637 | 0.0581 | 0.0867 | 0.0745 | 0.0638 | 0.0705 | 0.059 | 0.0662 | 0.0598 | 0.0698 |  | 0.0657 | 0.0607 | 0.0601 | 0.0781
7 | MGESLFKGPRDYNPISSSICHLTNESDGHTTSLYGIGFGPFIITNKHLFRRNNGTLVVQSLHGVFKVKDTTTLQQHLVDGRDMIIIRMPKDFPPFPQKLKFREPQREERICLVTTNFQTKSMSSMVSDTSCTFPSGDGIFWKHWIQTKDGQCGSPLVSTRDGFIVGIHSASNFTNTNNYFTSVPKNFMELLTNQEAQQWYSGWRLNADSVLWGGHKVFMVKPEEPFQPVKEATQL [V200Y] | 0.0588 |  | 0.0639 | 0.0557 | 0.0686 | 0.0639 | 0.0812 | 0.0605 | 0.0627 |  | 0.0568 | 0.0705 |  | 0.0652 |  |  | 0.0587 | 0.0633 | 0.0783
8 | MGESLFKGPRDYNPISSSICHLTNESDGHTTSLYGIGFGPFIITNKHLFRRNNGTLVVQSLHGVFKVKDTTTLQQHLVDGRDMIIIRMPKDFPPFPQKLKFREPQREERICLVTTNFQTKSMSSMVSDTSCTFPSGDGIFWKHWIQTKDGQCGSPLVSTRDGFIVGIHSASNFTNTNNYFTSVPKNFMELLTNQEAQQWCSGWRLNADSVLWGGHKVFMVKPEEPFQPVKEATQL [V200C] | 0.0665 |  | 0.0602 | 0.0607 | 0.0655 | 0.0289 | 0.0955 |  | 0.0502 | 0.0563 | 0.0614 | 0.0613 | 0.0552 | 0.0757 | 0.0551 | 0.0657 |  | 0.067 | 
9 | MGESLFKGPRDYNPISSSICHLTNESDGHTTSLYGIGFGPFIITNKHLFRRNNGTLVVQSLHGVFKVKDTTTLQQHLVDGRDMIIIRMPKDFPPFPQKLKFREPQREERICLVTTNFQTKSMSSMVSDTSCTFPSGDGIFWKHWIQTKDGQCGSPLVSTRDGFIVGIHSASNFTNTNNYFTSVPKNFMELLTNQEAYQWVSGWRLNADSVLWGGHKVFMVKPEEPFQPVKEATQL [Q197Y] | 0.0647 | 0.0614 |  |  | 0.0592 |  |  |  |  |  | 0.0562 | 0.0087 | 0.0659 |  |  | 0.0621 |  |  | 
10 | MGESLFKGPRDYNPISSSICHLTNESDGHTTSLYGIGFGPFIITNKHLFRRNNGTLVVQSLHGVFKVKDTTTLQQHLVDGRDMIIIRMPKDFPPFPQKLKFREPQREERICLVTTNFQTKSMSSMVSDTSCTFPSGDGIFWKHWIQTKDGQCGSPLVSTRDGFIVGIHSASNFTNTNNYFTSVPKNFMELLTSQEAQQWVSGWRLNADSVLWGGHKVFMVKPEEPFQPVKEATQL [N193S] | 0.052 |  | 0.0599 |  |  |  |  |  | 0.0548 |  |  |  |  |  |  |  |  |  | 
